Test results as given in PubChem BioAssay AID488969 (Vanderbilt High Throughput Screening Facility, 2010).
Whole data set: some 110,000 compounds, median “z-score” near -0.1, cut for the highest 2% near 2. The list shows a part of the results. Active and inactive are the calls of the source.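 How the source made its calls: active means z-score in the third read window above 3 or below -3; inactive means the rest.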

Target: Metabotropic glutamate receptor 8 (Rattus norvegicus) (UniProt P70579)
Assay: mGluR8 Gi/Go-coupled signaling modulation – cell-based, rat, thallium flux, HTS, primary screen (AID 488969)
Conditions: HEK293 rat mGluR8, GIRK (G protein-gated inwardly rectifying potassium channel) thallium flux, FluoZin2; at 10 µM; stronger effect = higher value; submaximal glutamate (EC20) added with thallium

UniProt P70579, sequence (P70579 whole entry, looked up): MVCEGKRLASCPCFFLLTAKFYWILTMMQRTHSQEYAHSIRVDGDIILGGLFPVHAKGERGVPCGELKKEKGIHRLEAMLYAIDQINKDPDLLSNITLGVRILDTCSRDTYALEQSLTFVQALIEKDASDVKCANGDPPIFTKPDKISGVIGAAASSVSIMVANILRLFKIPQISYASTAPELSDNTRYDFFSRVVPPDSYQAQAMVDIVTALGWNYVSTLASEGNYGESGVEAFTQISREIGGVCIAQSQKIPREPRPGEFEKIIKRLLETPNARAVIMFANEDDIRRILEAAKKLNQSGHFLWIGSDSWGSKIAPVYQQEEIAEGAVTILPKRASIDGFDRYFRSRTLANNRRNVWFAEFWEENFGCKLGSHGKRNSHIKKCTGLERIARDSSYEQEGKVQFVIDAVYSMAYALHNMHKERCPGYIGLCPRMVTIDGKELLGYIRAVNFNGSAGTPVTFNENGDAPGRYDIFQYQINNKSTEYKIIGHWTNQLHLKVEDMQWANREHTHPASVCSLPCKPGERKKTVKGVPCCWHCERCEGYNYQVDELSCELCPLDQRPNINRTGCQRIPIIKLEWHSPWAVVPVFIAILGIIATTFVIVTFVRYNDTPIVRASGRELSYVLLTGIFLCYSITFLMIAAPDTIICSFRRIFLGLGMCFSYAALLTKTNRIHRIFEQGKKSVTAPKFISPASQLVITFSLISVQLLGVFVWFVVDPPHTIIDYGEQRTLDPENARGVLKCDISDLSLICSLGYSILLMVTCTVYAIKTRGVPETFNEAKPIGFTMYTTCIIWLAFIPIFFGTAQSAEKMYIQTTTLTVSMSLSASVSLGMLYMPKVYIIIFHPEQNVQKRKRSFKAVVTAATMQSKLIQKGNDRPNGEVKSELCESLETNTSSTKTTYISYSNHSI

Row | SMILES | z-score
1 | CCOP(=O)(OCC)C(Nc1cccc(C(F)(F)F)c1)c1ccc(F)cc1 (centres undefined) | -0.398
2 | CC1CCCC(C)N1C(=O)Cn1c(SCC(=O)NCc2ccc3c(c2)OCO3)nc2ccccc21 (centres undefined) | 0.0663
3 | O=C(Nc1ccn(Cc2ccccc2F)n1)c1ccc(COc2ccccc2Cl)cc1 | -0.127
4 | COc1ncnc2c1oc1nc(C(C)C)c3c(c12)CC(C)(C)OC3 | -0.167
5 | COc1ccc(C)cc1NC(=S)NNC(=O)c1ccccc1Cl | 0.678
6 | CC(C)=CC1C=C(C)C(C)C2C(=O)NNC(=O)C12 (centres undefined) | -0.201
7 | CCOc1cc(NC(=S)NCC(C)C)c(OCC)cc1NC(=O)c1cccs1 | -0.0613
8 | CSC1=N/C(=C\c2ccc(F)cc2)C(=O)S1 | -0.817
9 | O=c1sc2ccccc2n1CCOc1ccccc1 | -0.0541
10 | O=C1c2ccccc2C(=O)N1CCCc1nc(-c2ccccn2)no1 | -0.44
11 | CC1CCN(CCNC(=O)CN(C)S(=O)(=O)c2cccc3nsnc23)CC1 | 0.105
12 | COc1cc(-c2noc(C3CCCN(S(=O)(=O)c4cccc(Cl)c4)C3)n2)cc(OC)c1OC (centres undefined) | -0.013
13 | COCCNC(=O)/C(C#N)=C/c1ccc(-c2ccc(S(=O)(=O)N3CCOCC3)cc2)o1 | -0.137
14 | CCc1ccc(N/C(SCc2ccccc2C)=C(/C#N)C(=O)NCc2ccco2)cc1 | -0.191
15 | CCOC(=O)N1CCC(NC(=O)c2cnn3ccccc23)CC1 | -0.109
16 | NC(=O)c1ncc(C(F)(F)F)cc1Oc1cccc(F)c1 | -0.0977
17 | CCCS(=O)(=O)C(=C1Nc2ccccc2N1)S(=O)(=O)CCC | -0.282
18 | CCN(CC)CC(=O)Nc1nc(-c2ccc(Cl)cc2)cs1 | 0.792
19 | O=C(O)c1ccc(CSc2nc(-c3ccc(Cl)cc3)cc(C(F)(F)F)n2)cc1 | -0.682
20 | CNS(=O)(=O)c1cnccc1N1CCN(c2cccc(Cl)c2)CC1 | -0.238
21 | Clc1ccc(/C=C/c2nc3ccccc3[nH]2)c(Cl)c1 | -0.57
22 | COC(=O)c1cc(NC(=O)CC2NC3CCCCC3NC2=O)cc(C(=O)OC)c1 (centres undefined) | 0.0785

Row | SMILES | z-score
23 | COC(=O)c1ccccc1S(=O)(=O)N(Cc1cc2cc3c(cc2[nH]c1=O)OCO3)C1CCCCC1 | 0.242
24 | O=C(O)CC(NC(=O)C1c2ccccc2Oc2ccccc21)c1ccc(Cl)cc1 (centres undefined) | -0.121
25 | CC1(C)Cc2c(sc3nc(SCC(=O)NCc4ccccc4)n(-c4ccccc4)c(=O)c23)CS1 | 0.0784
26 | COc1cccc(NC(=O)COC(=O)c2c(-c3ccccc3)noc2C)c1 | 0.34
27 | Cc1cc(OCC(=O)O)c2ccccc2n1 | -0.146
28 | COc1ccc(-c2noc(CN(C(=O)c3c(-c4ccccc4Cl)noc3C)C(C)C)n2)cc1 | -0.709
29 | Cn1cc(S(=O)(=O)Nc2ccc(F)cc2F)c(=O)n(C)c1=O | -0.722
30 | COc1ccc(-c2c(C(C)=O)c(C)nc3sc4c(=O)n(-c5ccc(C)cc5)nnc4c23)cc1 | -0.165
31 | CCOc1ccc(OCC)c(NC(=O)CNS(=O)(=O)c2cccs2)c1 | -1.51
32 | COc1cc(/C=C2/SC(=S)N(CC3CCCO3)C2=O)ccc1O (centres undefined) | 1.69
33 | CCOC(=O)C1CCCN(CCC(C)c2ccccc2)C1 (centres undefined) | 0.261
34 | Cc1cc(C)nc(SCCS(=O)(=O)Cc2ccc(Cl)cc2)n1 | 0.154
35 | O=C(CSc1nc2ccccc2c(=O)n1CCCN1CCOCC1)Nc1cccc(S(=O)(=O)N2CCCCCC2)c1 | 0.74
36 | Cc1cc(N2CCC(C)CC2)nc(-n2nc(C)cc2C)n1 | -0.389
37 | Cc1ccc(NC(=O)c2sc3ccccc3c2Cl)nc1 | -0.355
38 | Cc1ccc(-c2nnn(CC(=O)N(c3ccccc3)C(C(=O)NC3CCCC3)c3ccco3)n2)o1 (centres undefined) | 0.0303
39 | Cc1ccc(NC(=S)NCc2cccnc2)cc1 | -0.132
40 | O=C(c1cccnc1)N1CCN(C(=O)c2ccco2)CC1 | 0.0314
41 | CCOC(=O)NC1(NCC(C)C)Oc2ccccc2O1 | -0.313
42 | Nc1nc2n(n1)C(c1ccc(F)cc1)CC(c1ccc(F)cc1)N2 (centres undefined) | 0.0113
43 | Cc1ccc(-n2c(SCC(=O)Nc3cc(C)on3)nc3c([nH]c4ccccc43)c2=O)cc1 | 0.754
44 | c1ccc(Cn2nnnc2C(c2ccccn2)N2CCN(c3ccccc3)CC2)cc1 (centres undefined) | -0.925

Row | SMILES | z-score
45 | Cc1cc(C)n(C(=O)CCCCCC(=O)n2nc(C)cc2C)n1 | -0.425
46 | COc1cccc(N=c2oc3ccc(OC)cc3cc2-c2nc3ccccc3[nH]2)c1 | 0.503
47 | Cc1cc(C)cc(C(=O)O/N=C(\N)c2ccc(Br)cc2)c1 | 0.0108
48 | CCOc1ccc(N(CC(=O)Nc2ccc(OC)cc2)S(=O)(=O)c2c(C)noc2C)cc1 | -0.129
49 | COc1ccc(Nc2nc(-c3cccs3)nc3ccccc23)cc1 | -0.199
50 | O=C(NN1C(=O)c2ccccc2C1=O)C1CCCCC1 | -0.39
51 | CC1=NCCN1S(=O)(=O)c1cc(Cl)ccc1Cl | 0.459
52 | CCn1nnc(C(=O)O)c1C(=O)O | 0.0169
53 | CCCCNS(=O)(=O)c1ccc(S(=O)(=O)NCc2ccncc2)cc1 | 2.5
54 | O=C(CCN1C(=O)/C(=C/c2cccs2)SC1=S)NC1=NCCS1 | -0.0426
55 | COc1ccccc1NC(=O)Oc1ccc(C(C)=O)cc1 | -0.0596
56 | O=C(COc1ccc(Cl)cc1)OCC(=O)N1CCCc2ccccc21 | -0.548
57 | Cc1nc(C)c(C(=O)NNC(=O)c2ccc(Br)cc2)s1 | -0.0708
58 | CCOC(=O)C(=O)/C(=C\N(C)C)c1onc(-c2c(F)cccc2Cl)c1C(=O)OC | 1.03
59 | C=CCc1ccc(OCCCN2CCCC(C)C2)c(OC)c1 (centres undefined) | 1.11
60 | CCCCc1c(O)nc2sccn2c1=O | -0.251
61 | Cc1ccc(S(=O)(=O)N(C)C)cc1NC(=O)CCNC(=O)c1ccccc1Cl | -0.212
62 | CC1(C)CC(=O)C2=C(C1)OC1=C(C(=O)CC(C)(C)C1)C2(C)C | -0.182
63 | NC(=O)C1CCN(CCCNC2CC(=O)N(Cc3ccc(N4CCCC4=O)cc3)C2=O)CC1 (centres undefined) | 1.16
64 | CCOC(=O)CSc1nc(C)cc(C)n1 | -0.0344
65 | CCOc1ccc(OC(=O)NC(c2ccccc2)C(Cl)(Cl)Cl)cc1 (centres undefined) | -0.048
66 | c1ccc(-c2c(-c3ccccc3)n(Cc3ccco3)c3ncnc(NCCCn4ccnc4)c23)cc1 | 2.78

Row | SMILES | z-score
67 | CCOC(=O)N1CCC(NS(=O)(=O)c2cc3c(cc2Cl)NC(=O)CO3)CC1 | 0.122
68 | O=C(NC1CCCCCC1)c1cccc(N2CCCC2=O)c1 | -0.399
69 | COc1ccccc1C1/C(=C(/O)c2ccc(C)cc2)C(=O)C(=O)N1Cc1ccco1 (centres undefined) | -0.766
70 | CCC(=O)Nc1ccc(Cl)c(NC(=O)c2ccc(Br)o2)c1 | -1.17
71 | COC(=O)C1=C(C)OC(N)=C(C#N)C1c1ccccc1 (centres undefined) | -0.92
72 | CCOC(=O)c1[nH]c(C)c(C(=O)c2ccc(C)cc2)c1C | -0.701
73 | Cc1ccc(-n2c(N)c(C#N)c(-c3ccc(Cl)cc3)c(C#N)c2=O)cc1 | -0.0258
74 | C=CCN1C(=O)C(CC(=O)NCC)SC1=Nc1ccc(S(N)(=O)=O)cc1 (centres undefined) | 0.98
75 | Nc1ccc(S(=O)(=O)c2ccc(Cl)cc2)cc1 | -0.574
76 | CCC(=O)N1c2ccccc2C(N(C(C)=O)c2ccccc2)CC1C (centres undefined) | -0.0628
77 | O=c1c2ccccc2nc2n1C(CSc1ccc(Cl)cc1)CN2 (centres undefined) | -0.214
78 | CCOc1cc(CNCc2ccncc2)cc(Br)c1OCc1ccc(F)cc1 | 0.596
79 | COc1cccc(/C=N/n2c(-c3cccs3)n[nH]c2=S)c1 | active: 3.25
80 | CC#CCCCC(=O)Nc1ccccc1C(=O)O | 0.113
81 | Cn1cc([N+](=O)[O-])c(C(=O)Nc2ccc(Br)cn2)n1 | 0.227
82 | Cc1ccc(NC(=O)CSC2=C(C#N)C(c3ccco3)C3=C(CC(C)(C)CC3=O)N2)cc1 (centres undefined) | -2.52
83 | O=C1CCCCC1C(Nc1ccc(Cl)cc1)c1ccccc1 (centres undefined) | -0.186
84 | Cc1cc(C(=O)N/N=C/c2cccc([N+](=O)[O-])c2)c2ccccc2n1 | 0.333
85 | O=C(O)CCn1c(C(=O)O)cc2sccc21 | 0.105
86 | COc1ccccc1CNC(=O)C1CCCN(S(=O)(=O)c2cnc[nH]2)C1 (centres undefined) | -0.0986
87 | Cc1c(Cl)cccc1NC(=O)[C@@H](NC(=O)c1ccccc1Cl)C(C)C | 1.14
88 | CCOC(=O)c1cc(C)n(Cc2ccc(OCC)c(OC)c2)c1C | -0.962

Row | SMILES | z-score
89 | COCC(N)(c1ccccc1)c1nc2ccccc2n1C (centres undefined) | -0.582
90 | COc1cccc(/C=N/NC(=O)C(=O)N2CCCC2)c1OC | -0.494
91 | Cn1c(CCNC(=O)c2ccco2)nc2cc(NC(=O)C3CCCCC3)ccc21 | 0.619
92 | O=C(Nc1ccc2c3c(cccc13)CC2)c1ccco1 | 0.0277
93 | Cc1cc(C)n(-c2nc(SCCN(C)C)c3c4c(sc3n2)COC(C)(C)C4)n1 | 0.446
94 | CCCNC(=O)COc1ccc(S(=O)(=O)Nc2ccc(C)cc2)cc1 | 0.229
95 | CCCC(C(=O)NCc1ccccc1)N(C(=O)Cn1nnc(-c2cccs2)n1)c1ccc2c(c1)OCCO2 (centres undefined) | 0.325
96 | CC(C)n1c(NCCc2ccccc2)nc2c1c(=O)n(C)c(=O)n2C | 2.39
97 | COc1ccc(O[C@@H]2O[C@H](COC(C)=O)[C@@H](OC(C)=O)[C@H](OC(C)=O)[C@H]2NC(C)=O)cc1 | -0.217
98 | Cc1cc(S(=O)(=O)N2CCCC2)ccc1OCC(=O)NCc1ccco1 | 0.134
99 | N#Cc1c2c(c(-n3cnc4ccccc43)n3c1nc1ccccc13)CCC2 | -0.0882
100 | O=P(O)(O)COc1ccccc1P(=O)(c1ccccc1)c1ccccc1 | 0.0273
101 | Cc1ccc(C(=O)c2c[nH]c3c(F)cc(F)cc3c2=O)cc1 | -0.0527
102 | Cc1ccc(-c2nnc3c4ccccc4c(C)nn23)cc1S(=O)(=O)N1CCN(C)CC1 | -0.999
103 | O=C(Nc1nncs1)c1ccccc1Br | -0.0935
104 | CC1=C(C(=O)N(C)Cc2ccccc2)C2(CCC(C)CC2)OC1=O (centres undefined) | -0.138
105 | CCC(C)NS(=O)(=O)c1ccc(OCC(=O)N2CCCCC2)cc1 (centres undefined) | -0.0559
106 | CCN(CC)S(=O)(=O)c1ccc(NC(=O)COc2c(OC)cccc2OC)cc1 | -0.124
107 | Cc1noc2ncnc(Sc3ccccc3Cl)c12 | -0.264
108 | O=C(NCc1ccco1)C(c1ccc(F)cc1)N(Cc1cccnc1)C(=O)Cn1nnc2ccccc21 (centres undefined) | -0.197
109 | Cc1ccc(S(=O)(=O)Cc2ccc(C(=O)N3CCN(c4ccccn4)CC3)o2)cc1 | -0.132
